# Hit rate of the full screen: of about 310,000 compounds, about 2,200 (0.71%) showed an effect of 50% or more. Effects have a minus sign here. Some of the results follow.
# Molecular target: human ether-à-go-go-related gene (hERG) potassium channel (human, UniProt Q12809)
# Experiment: primary screen, population patch clamp on CHO cells stably expressing hERG
# human ether-à-go-go-related gene (hERG) potassium channel, sequence (Q12809 whole entry, looked up): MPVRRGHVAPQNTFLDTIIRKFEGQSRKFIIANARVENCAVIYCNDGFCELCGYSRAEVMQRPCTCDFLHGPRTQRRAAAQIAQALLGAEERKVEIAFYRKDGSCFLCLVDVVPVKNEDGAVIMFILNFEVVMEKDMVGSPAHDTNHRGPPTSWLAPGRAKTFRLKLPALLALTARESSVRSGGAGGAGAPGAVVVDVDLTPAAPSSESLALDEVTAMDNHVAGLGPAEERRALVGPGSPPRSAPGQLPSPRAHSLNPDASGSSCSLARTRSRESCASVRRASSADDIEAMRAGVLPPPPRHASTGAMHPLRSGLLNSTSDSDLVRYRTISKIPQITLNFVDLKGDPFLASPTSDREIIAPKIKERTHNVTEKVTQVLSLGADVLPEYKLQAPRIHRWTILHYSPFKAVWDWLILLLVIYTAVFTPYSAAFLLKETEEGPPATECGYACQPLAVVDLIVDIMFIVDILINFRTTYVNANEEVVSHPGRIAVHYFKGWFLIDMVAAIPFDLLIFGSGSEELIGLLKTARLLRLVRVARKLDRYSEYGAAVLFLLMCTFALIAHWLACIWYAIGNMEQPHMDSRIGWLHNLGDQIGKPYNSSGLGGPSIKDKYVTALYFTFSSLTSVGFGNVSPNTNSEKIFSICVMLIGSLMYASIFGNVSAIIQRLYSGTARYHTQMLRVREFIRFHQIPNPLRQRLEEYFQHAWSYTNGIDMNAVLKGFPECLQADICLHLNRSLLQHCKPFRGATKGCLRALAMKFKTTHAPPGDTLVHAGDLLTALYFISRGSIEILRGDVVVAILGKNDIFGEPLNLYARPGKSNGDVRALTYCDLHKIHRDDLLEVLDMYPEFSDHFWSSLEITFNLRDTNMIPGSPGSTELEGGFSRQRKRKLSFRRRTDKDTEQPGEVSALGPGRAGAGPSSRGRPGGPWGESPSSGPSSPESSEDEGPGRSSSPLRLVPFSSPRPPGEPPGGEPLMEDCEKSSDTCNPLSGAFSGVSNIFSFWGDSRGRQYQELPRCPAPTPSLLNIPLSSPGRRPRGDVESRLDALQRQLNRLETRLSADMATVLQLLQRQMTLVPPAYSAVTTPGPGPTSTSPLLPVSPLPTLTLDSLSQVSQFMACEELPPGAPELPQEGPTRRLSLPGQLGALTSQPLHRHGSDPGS
row,Structure (SMILES),"hERG current change (%, negative = inhibition) at 1uM [%]"
1,CCOC(=O)c1cccc(NC(=O)CCn2nnc3ccccc32)c1,3.27
2,COc1ccc(CNC(=O)C(OC(=O)c2ccco2)c2ccccc2)cc1 (stereo not shown),-1.26
3,COc1ccccc1C(=O)NC(=O)COC(=O)c1oc2ccccc2c1C,9.71
4,COc1cc(OC)cc(-c2cc3nc(C)c(CCC(=O)O)c(=O)n3[nH]2)c1,-0.937
5,COCCC(=O)N1CCC(Oc2ccc(C(=O)N3CCC(N(C)C)C3)cc2)CC1 (stereo not shown),14.1
6,CN(C)CCOCCOc1ccc(Cl)cc1Br.O=C(O)C(=O)O,-1.15
7,CC(=O)N1c2ccc(S(=O)(=O)N3CCCCC3)cc2CC1C(=O)Nc1cccc(C)c1 (stereo not shown),19.1
8,Cc1ccc(S(=O)(=O)Cc2cc(-c3ccc(Cl)cc3)no2)cc1,13.9
9,O=C(c1ccccc1)c1cccn1CC(=O)N1CCN(c2ccccc2)CC1,10.7
10,Cc1cc(C(=O)CN2C(=O)c3ccccc3C2=O)c(C)n1Cc1cccs1,9.88
11,O=C(Nc1nnc(C(F)(F)F)s1)c1cccnc1,13
12,CCOc1ccccc1NC(=O)CCc1nnc2ccc(N3CCC(C)CC3)nn12,-1.93
13,COC(=O)c1cc(S(=O)(=O)N2CCN(c3ccc(OC)cc3)CC2)cn1C,16.7
14,CC(=O)Nc1cc2c(cc1C(=O)C(C)C)OCCO2,0.916
15,CCc1nnc(NC(=O)CSc2nnc(-c3ccccc3O)n2CC)s1,-2.15
16,O=C(NN=C1CCCCCCCCCCC1)c1cccnc1,3.23
17,CCOc1ccc(N2CC(C(=O)NCCCN3CCOCC3)CC2=O)cc1 (stereo not shown),-4.41
18,CCCCNC(=O)C1c2cc(OC)c(OC)cc2C(=O)N(C)C1c1cccs1 (stereo not shown),-0.594
19,CC(C)CC(=O)Nc1ccc([N+](=O)[O-])cc1Cl,8.2
20,COc1cccc(N=Cc2c(O)n(-c3cccc(C)n3)c(=O)c3ccccc23)c1,6.9
21,COc1ccc(N(CC(=O)Nc2ccc(C)c(C)c2)S(=O)(=O)c2c(C)n[nH]c2C)cc1,14.5
22,Cc1cc(C(=O)N2CCCC(N3CCN(c4cccc(C(F)(F)F)c4)CC3)C2)n[nH]1 (stereo not shown),-25.5

row,Structure (SMILES),"hERG current change (%, negative = inhibition) at 1uM [%]"
1,COc1ccccc1OCc1ccc(C(=O)NCC2CCCO2)o1 (stereo not shown),2.68
2,NC(=O)c1ccccc1OCCOCCOCCOc1ccccc1C(N)=O,-7.98
3,COc1ccc(C2CC(c3cccs3)=NN2c2ccc(C=O)cc2)cc1 (stereo not shown),6.16
4,COc1cc(C(O)c2nc3ccccc3n2C)cc(OC)c1OC (stereo not shown),1.48
5,O=C(COC(=O)CNC(=O)c1cccc([N+](=O)[O-])c1)Nc1cccc(S(=O)(=O)N2CCCC2)c1,15.3
6,CC(=O)N1C(=O)C2(Nc3ccccc3N2)c2ccccc21,14
7,Cc1ccc(/C=C2/SC(=S)N(CCCC(=O)Nc3cc([N+](=O)[O-])ccc3O)C2=O)cc1,14.2
8,CCOC(=O)CN(C)S(=O)(=O)c1ccc(-c2cc(C(=O)OC)sc2C(F)(F)F)cc1,10.7
9,O=C(Nc1cc(S(=O)(=O)N2CCCCC2)ccc1N1CCOCC1)c1cc(=O)[nH]c2ccccc12,16.8
10,Cc1[nH]nc2c1C(c1ccsc1)C(C#N)=C(N)O2 (stereo not shown),13.7
11,Cc1nnc(N2C(=O)C(O)=C(C(=O)c3ccco3)C2c2cccc3ccccc23)s1 (stereo not shown),4.71
12,O=C1OC(Nc2ccc(F)cc2F)c2ccccc21 (stereo not shown),8.3
13,Cc1noc(C)c1S(=O)(=O)N1CCCN(C(=O)/C=C/c2ccccc2F)CC1,-31.2
14,O=C(CSc1nc2c(cnn2-c2ccc(F)cc2)c(=O)[nH]1)N1CCOCC1,7.21
15,COc1cccc(/C=N/n2c(N)c(S(=O)(=O)c3cccs3)c3nc4ccccc4nc32)c1OC,9
16,CC(CNc1ccc([N+](=O)[O-])cc1)NC(=O)c1ccccc1Br (stereo not shown),-25.9
17,Cc1ccc(-c2ccc(/C=N/n3cnnc3)o2)cc1Cl,7.15
18,CNC(=S)N=Nc1c(O)[nH]c2ccccc12,4.56
19,Cc1ccccc1OCC(=O)O/N=C(\N)c1ccncc1,11.6
20,Cc1cccc(C(=O)OCC(=O)NC(C)CCc2ccccc2)c1O (stereo not shown),4.34
21,CN1CCc2c(sc3nc(NN)n(-c4ccc(Cl)cc4)c(=O)c23)C1,14.9
22,O=C1CC(NS(=O)(=O)c2cccs2)CN1c1ccc(F)cc1 (stereo not shown),13.9

row,Structure (SMILES),"hERG current change (%, negative = inhibition) at 1uM [%]"
1,CC(C)N(C)C(=O)c1ccc(OC2CCN(CCc3ccccc3)CC2)cc1,2.05
2,CCc1ccccc1NC(=O)N1CCc2ccccc21,5.07
3,CC1=CC(C)(C)NC(=S)N1c1ccccc1,13.6
4,CCNc1ccc(S(=O)(=O)N(C)C)cc1NCC(=O)Nc1ccc(F)c(Cl)c1,4.45
5,CC(C)c1c(C(=O)N/N=C/c2ccsc2)nnn1-c1nonc1N,19.6
6,CCCCC1=CC2=CC(=O)C(C)(OC(=O)CC)C(=O)C2=CN1C1CCCC1 (stereo not shown),-21.6
7,O=S(=O)(NC1CCCCCC1)c1ccc(Br)s1,4.06
8,CC1CCCN(Cc2nc3c(c(=O)n(C)c(=O)n3C)n2CCc2ccccc2)C1 (stereo not shown),0.562
9,CC(C)NC(=O)c1onc(CSc2ccc(F)cc2)c1C(=O)NC(C)C,9.57
10,CCN1CCN(C(=O)C2CCN(S(=O)(=O)c3ccc4c(c3)NC(=O)C(C)S4)CC2)CC1 (stereo not shown),5.28
11,COc1ccc(OC)c(Nc2nnc(C)c(=O)[nH]2)c1,11.5
12,CSCCC(NS(=O)(=O)c1ccccc1F)C(=O)Nc1ccncc1 (stereo not shown),2.97
13,Cc1nn(-c2ccccc2)c(Cl)c1/C=N/NC(=O)c1ccn[nH]1,5.25
14,CN(C)C1(CNC(=O)Nc2ccc(Cl)c(Cl)c2)CCCCC1,3.77
15,COc1ccc2c(c1)C(SCC(=O)NCCc1ccccc1)CC(C)(C)O2 (stereo not shown),2.65
16,CC(C)C[C@H](NC(=O)N1CCn2c1nc1ccccc12)C(=O)N[C@@H](C(=O)O)c1ccccc1,-12.4
17,Cc1csc(SCC(=O)NCc2ccccc2)n1,3.8
18,COc1cc(C(=O)Nc2cccc(-c3nc4ncccc4o3)c2C)cc(OC)c1OC,6.28
19,COC(=O)C1=CO[C@@H](O[C@@H]2O[C@H](CO)[C@@H](O)[C@H](O)[C@H]2O)C2C1C[C@H](O)[C@@H]2C (stereo partly shown),12.2
20,COc1ccc(S(=O)(=O)N2CCN(C)CC2)cc1,6.17
21,CCc1cccc(CC)c1N(COC)C(=O)Cn1cnc2ccccc21,6.19
22,CC1CCCCN1C(=O)Cc1ccc(Cl)cc1 (stereo not shown),-7.41

row,Structure (SMILES),"hERG current change (%, negative = inhibition) at 1uM [%]"
1,CC1CCCCN1C(=O)CSc1nnc(-c2ccco2)n1CC1CCCO1 (stereo not shown),12
2,COc1ccc(-c2cc3ccccc3n2CC(O)CN2CCN(CCO)CC2)cc1 (stereo not shown),-7.99
3,Cc1nn(C(=O)c2cccs2)c(N)c1-c1ccccc1,8.56
4,Fc1ccc(C2=Nn3c(Cc4ccccc4)nnc3SC2)cc1,-5.44
5,O=C(NC1CCCCC1)c1cccc(S(=O)(=O)N2CCOCC2)c1,4.35
6,COc1ccc(/C=C(\NC(=O)c2ccc(C)cc2)C(=O)Nc2c(C)n(C)n(-c3ccccc3)c2=O)cc1,7.24
7,CCN1CCC[C@H]1CNC(=O)c1c(O)c(Cl)cc(Cl)c1OC,1.41
8,O=C1CCN(C(=O)C(Cl)Cl)N1,10.7
9,C/C(=C\C(=O)OCC(=O)NCc1ccccc1)C(=O)OCC(=O)NCc1ccccc1,13
10,COCCCn1c(=O)c2sccc2n(Cc2cccc(C)c2)c1=O,14.3
11,CCN(CC)C(=O)COc1coc(CN2CCN(Cc3ccccc3)CC2)cc1=O,8.33
12,Cc1ccc(NC(=O)c2cc(-c3ccc(C)c(C)c3O)n[nH]2)cc1C,14
13,COc1ccccc1CNC(=O)C1COc2ccccc2O1 (stereo not shown),2.38
14,COc1cc(CN(C(=O)c2cccs2)C2CCS(=O)(=O)C2)cc(OC)c1OC (stereo not shown),14.7
15,c1ccc(-c2ccc(CN3C[C@@H]4C(c5ccccc5)C5(c6cccnc6)CC4(C5)[C@H]3c3ccccc3)cc2)cc1 (stereo partly shown),6.14
16,O=C(Cn1cnc2ccccc2c1=O)NCCC(=O)N1CCN(c2ccccc2)CC1,2.77
17,CCOc1ccccc1NC(=O)NCc1cccnc1,10.5
18,CCCC(=O)N1CCc2[nH]c3ccccc3c2C1,9.1
19,Cc1ccc(C(=O)Oc2ccc(Cl)c3cccnc23)cc1[N+](=O)[O-],15
20,CC1(C)CC(=O)C2=C(C1)NC(=O)NC2c1ccc(Cl)cc1 (stereo not shown),18.9
21,CCN(C(=O)COC(=O)/C=C/c1ccccc1[N+](=O)[O-])C1CCS(=O)(=O)C1 (stereo not shown),11.8
22,CC12CCC(=O)N1C(C(=O)NCc1ccccc1F)CS2 (stereo not shown),12.2
